# Hit rate of the full screen: of about 48,000 compounds, about 450 (0.94%) were called active. The shares of active, inactive and inconclusive entries below differ from those in the screen. The call rests on the fitted dose curve; in most records, active means well fitted inhibition curve with a large enough effect; inconclusive means small, poorly fitted or top-dose-only effect; inactive means no such curve, though single readings can be large or run the other way. Potencies beside an inconclusive call are fits to weak or partial responses and may not hold up.
# Assay: Primary qHTS for Identification of Small Molecule Inhibitors of Huntingtin Promoter Activity; further: nearly all actives have a fitted effect of over 50% in size
# Settings: HEK293 HTT promoter firefly luciferase reporter (activity 0% = vehicle and -100% = no light), 24 h; activity change, negative = inhibition: at 57.5 µM (top of the series)
# Method in brief: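 HEK293 Fluc reporter, 2,500 cells/well, 24 h pre-culture; cpds up to 57.5 uM final, 24 h 37 degrees C; Dual-Glo, 10 min RT; normalized vehicle = 0%, zero RLU = -100%.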
# Potency means the concentration at half of the fitted maximal effect; tags describe the fitted curve by direction and shape.
Compound,Potency,"activity change, negative = inhibition"
COc1ccccc1NC(=O)C1=C(C)Nc2nc(SCc3ccccc3)nn2C1c1cccc(O)c1 (stereo not drawn),"inconclusive: 39.8 µM [inhibitor, single point]",–
COc1ccc(OC)c(NS(=O)(=O)c2ccc(-n3cccn3)cc2)c1,"inconclusive: 20 µM [inhibitor, partial curve, poor fit]",–
Cc1cccc(N(C)S(=O)(=O)c2nnc(NC(=O)c3cccs3)s2)c1,–,inactive: -11.6%
O=C(c1ccc2c(c1)OCO2)c1cn(Cc2ccc(Cl)cc2)c2ccc(F)cc2c1=O,"inconclusive: 31.6 µM [inhibitor, partial curve, poor fit]",–
CC1CCC(NC(=O)c2ccc(CS(=O)(=O)c3ccc(Cl)cc3)o2)CC1 (stereo not drawn),"inconclusive: 39.8 µM [inhibitor, single point]",–
CCN(CC)S(=O)(=O)c1ccc(C(=O)NCCSc2c(-c3ccc(F)cc3)[nH]c3ccccc23)cc1,"inconclusive: 17.8 µM [inhibitor, partial curve, poor fit]",–
CCn1c(=O)cc(OCC(=O)N2CCN(c3ccc(C)cc3)C(C)C2)c2ccccc21 (stereo not drawn),"inconclusive: 39.8 µM [inhibitor, single point]",–
COc1c(C)cnc(Cn2cnc3c(Cl)nc(N)nc32)c1C,"inconclusive: 0.863 µM [inhibitor, full curve]",–
COc1ccc2c(Oc3ccc(NC(=O)c4c(C)n(CC(C)(C)O)n(-c5ccccc5)c4=O)nc3)ccnc2c1,–,inactive: -5.12%
COCc1cc(C)nc2c1C(=O)NC(c1ccc(C)cc1)N2Cc1ccccc1 (stereo not drawn),"inconclusive: 20 µM [inhibitor, partial curve, poor fit]",–
CC=CC(=O)N(CC)c1ccccc1C,–,inactive: -9.6%
CCc1ccc(NC(=O)Cn2c(=O)n(CCCCC(=O)NCc3ccccc3Cl)c(=O)c3ccccc32)cc1,–,inactive: 0.485%
CCOc1cc(OCC)cc(C(=O)Nc2cccc(-c3nc4ccccc4[nH]3)c2)c1,"inconclusive: 28.2 µM [inhibitor, partial curve, poor fit]",–
CCOc1ccc(NC(=O)CN2CCN(S(=O)(=O)c3ccc(OC)cc3)CC2)cc1,–,inactive: -4.67%
O=C(NCc1ccccc1)C(=O)NCC(c1ccco1)S(=O)(=O)c1ccc(Cl)cc1 (stereo not drawn),"inconclusive: 28.2 µM [inhibitor, single point]",–
Cc1ccccc1Nc1nn2c(=O)c3ccc(C(=O)NCc4ccccc4)cc3nc2s1,"inconclusive: 1.26 µM [inhibitor, full curve, poor fit]",–
O=C(C1CC1)N1CC[C@@H](Cn2c(-c3ccc(-c4ccc5occc5c4)cc3)nc3cnccc32)C1,–,inactive: -3.51%
CCCCN(C)CCCNC(=O)C1CCN(S(=O)(=O)CC)CC1,–,inactive: -11.3%
CC(=O)C1=C(c2ccccc2)N(C(C)=O)n2c(nnc2C2CCCCC2)S1,"inconclusive: 25.1 µM [inhibitor, single point]",–

Compound,Potency,"activity change, negative = inhibition"
Cc1cc(C)cc(-n2cnc3cc(C(=O)NC4CCCCCC4)ccc32)c1,"inconclusive: 39.8 µM [inhibitor, single point]",–
COc1ccc(CCNC(=O)c2cc3n(n2)CCCN(Cc2ccc(C)cc2)C3=O)cc1OC,"inconclusive: 31.6 µM [inhibitor, partial curve, poor fit]",–
CCn1cc2nc(SCC(=O)Nc3ccc(C)cc3)n(Cc3ccc(C)cc3)c(=O)c2n1,"inconclusive: 35.5 µM [inhibitor, single point]",–
O=S(=O)(NCCS(=O)(=O)N1CCN(c2cccc(Cl)c2)CC1)c1ccc(F)cc1,"inconclusive: 39.8 µM [inhibitor, single point]",–
O=C(NCc1ccco1)c1ccc2c(c1)N(Cc1ccc(Cl)cc1)C(=O)c1ccccc1S2(=O)=O,"inconclusive: 25.1 µM [inhibitor, single point]",–
CN(Cc1ccccc1)c1ccc(-c2nc(-c3ccncc3)no2)cc1[N+](=O)[O-],"inconclusive: 39.8 µM [inhibitor, single point]",–
O=C(NCCC1=CCCCC1)C1CCN(C(=O)N2CCOc3ccc(Cl)cc32)CC1,"inconclusive: 35.5 µM [inhibitor, single point]",–
O=C(Cn1c(=O)n(Cc2nc(-c3ccccc3)no2)c(=O)c2ccccc21)Nc1cccc(Cl)c1,"inconclusive: 31.6 µM [inhibitor, single point]",–
Cc1ccc(C)c(Nc2nnc(-c3ccc(C)c(S(=O)(=O)NCC4CCCO4)c3)c3ccccc23)c1 (stereo not drawn),"inconclusive: 28.2 µM [inhibitor, partial curve, poor fit]",–
COc1ccc(-c2c(C)c3ccc(O)c(CN4CCCC(C)C4)c3oc2=O)cc1OC (stereo not drawn),–,inactive: -29.6%
CCOc1ccc(N2C(=O)c3[nH]nc(-c4ccc(OC)cc4)c3C2c2cccs2)cc1 (stereo not drawn),"inconclusive: 28.2 µM [inhibitor, single point]",–
COc1cc(Nc2nc(SCc3ccccc3Cl)nc3ccccc23)cc(OC)c1,"inconclusive: 35.5 µM [inhibitor, single point]",–
CCOCc1cc(CN2CCN(c3ccccc3OC)CC2)c(O)c2ncccc12,active: 11.2 µM,–
COc1cccc(NC(=O)Cn2cc(S(=O)(=O)Cc3ccccc3F)c3ccccc32)c1,"inconclusive: 22.4 µM [inhibitor, single point]",–
CCOC(=O)N1CCN(Cc2nc3cc(NC(=O)c4cccc(C)c4)ccc3n2C(C)C)CC1,"inconclusive: 2.82 µM [inhibitor, full curve]",–
Cc1cc(OC(C)C(=O)N(Cc2ccc(N(C)C)cc2)Cc2ccco2)ccc1Cl (stereo not drawn),"inconclusive: 39.8 µM [inhibitor, single point]",–
CC1CCCN(CCCNC(=O)c2ccc3c(c2)N(Cc2ccc(Cl)cc2)C(=O)c2ccccc2S3(=O)=O)C1 (stereo not drawn),–,inactive: -24.6%
O=C(NCc1ccccc1)c1ccc2c(c1)CCN2S(=O)(=O)c1ccc(Cl)cc1,"inconclusive: 25.1 µM [inhibitor, partial curve, poor fit]",–
COc1ccc(-c2noc(CN(C(=O)C(C)Oc3ccc(C)cc3)C(C)C)n2)cc1 (stereo not drawn),"inconclusive: 28.2 µM [inhibitor, single point]",–

# Reference: PubChem BioAssay AID1508623 (National Center for Advancing Translational Sciences (NCATS), 2021)
